# Test results as given in PubChem BioAssay AID1460 (National Center for Advancing Translational Sciences (NCATS), 2008).
# In all, about 270,000 compounds went through this assay and about 5,800 (2.1%) were called active. The shares of active, inactive and inconclusive entries below differ from those in the screen. The call rests on the fitted dose curve; in most records, active means well fitted inhibition curve with a large enough effect; inconclusive means small, poorly fitted or top-dose-only effect; inactive means flat fitted curve, though single readings scatter. A potency beside an inconclusive call is a rough fit, not a confirmed value.
# Molecular target: Microtubule-associated protein tau (Homo sapiens) (UniProt P10636)
# Assay: qHTS for Inhibitors of Tau Fibril Formation, Thioflavin T Binding; further: nearly all actives have a fitted effect of over 55% in size
# Settings: recombinant tau K18 P301L (four-repeat tau fragment), heparin-induced fibrillization, ThT fluorescence; series mostly up to 57.4 µM
# Outline: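 Aggregation was driven by heparin (20 uM final) acting on recombinant tau […] bearing P301L in 100 mM sodium acetate pH 7; fibrils were detected with Thioflavin T.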
# Potency means the concentration at half of the fitted maximal effect; tags describe the fitted curve by direction and shape.
# Chain of UniProt P10636 (P10636 whole entry, looked up): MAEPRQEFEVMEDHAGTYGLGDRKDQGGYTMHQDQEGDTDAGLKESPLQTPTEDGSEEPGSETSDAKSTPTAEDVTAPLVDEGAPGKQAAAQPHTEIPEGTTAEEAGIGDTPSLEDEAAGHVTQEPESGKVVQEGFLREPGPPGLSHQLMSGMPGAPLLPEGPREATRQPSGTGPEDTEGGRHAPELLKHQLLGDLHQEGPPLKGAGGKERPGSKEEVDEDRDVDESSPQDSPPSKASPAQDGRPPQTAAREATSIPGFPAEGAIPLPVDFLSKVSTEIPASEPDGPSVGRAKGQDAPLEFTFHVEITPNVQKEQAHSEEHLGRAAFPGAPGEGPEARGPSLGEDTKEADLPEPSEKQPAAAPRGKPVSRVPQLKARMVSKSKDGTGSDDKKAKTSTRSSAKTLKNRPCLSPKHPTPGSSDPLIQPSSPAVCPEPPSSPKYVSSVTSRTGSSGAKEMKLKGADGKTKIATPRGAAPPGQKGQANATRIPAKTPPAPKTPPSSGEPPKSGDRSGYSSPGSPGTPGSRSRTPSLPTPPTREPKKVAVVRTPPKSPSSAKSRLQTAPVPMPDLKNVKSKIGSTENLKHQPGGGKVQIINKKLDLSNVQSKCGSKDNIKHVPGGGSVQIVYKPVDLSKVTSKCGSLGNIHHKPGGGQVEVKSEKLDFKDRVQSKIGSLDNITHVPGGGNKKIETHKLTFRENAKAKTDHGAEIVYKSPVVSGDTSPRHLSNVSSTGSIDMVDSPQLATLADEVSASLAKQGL
row,SMILES,Potency
1,CC(=C1C(=O)c2ccccc2C1=O)N1CCN(c2ccccn2)CC1,"inconclusive: 20 µM [inhibitor, partial curve]"
2,Cc1ccc(-c2cc(-c3ccccc3)c(C#N)c(SCC(O)CS(=O)(=O)Cc3ccccc3)n2)cc1 (configuration not stated),"inconclusive: 20 µM [inhibitor, partial curve]"
3,COc1ccc(CC(=O)N/N=C/C=C/c2cccc([N+](=O)[O-])c2)cc1OC,"inconclusive: 20 µM [inhibitor, partial curve, poor fit]"
4,Cc1ccc2c(c1)[nH]c1c(=O)n(CCN3CCNCC3)cnc12,inactive
5,COc1ccc(N=Cc2c(O)c3ccccc3oc2=O)cc1,"inconclusive: 10 µM [inhibitor, partial curve]"
6,COc1ccc(C(=O)Nc2nc(-c3nnn(-c4ccc(C(C)C)cc4)c3C)ns2)cc1,"inconclusive: 2.24 µM [inhibitor, full curve, poor fit]"
7,COc1ccccc1CCNC(=O)C(C)Sc1nc(-c2ccccc2)cc(C(F)(F)F)n1 (configuration not stated),inactive
8,COc1ccc(/C=N/OCC(=O)N=Nc2c(O)[nH]c3ccc(Br)cc23)cc1OC,active: 17.8 µM
9,Cc1c(C)c2c(c(C)c1O)CCC(C)(COc1ccc(Cc3sc(=O)[nH]c3O)cc1)O2 (configuration not stated),"inconclusive: 15.8 µM [inhibitor, partial curve]"
10,COc1ccc(C(=O)C(OC(=O)CNC(=O)c2ccco2)c2ccccc2)cc1 (configuration not stated),inactive
11,COc1cc2c(cc1OC)CN(CC(=O)Nc1ccc3c(c1)OCO3)CC2,"inconclusive: 25.1 µM [inhibitor, partial curve]"
12,COc1ccc(C)cc1NC(=O)Nc1cccc(-c2noc(C)n2)c1,"inconclusive: 10 µM [inhibitor, partial curve]"
13,CCOC(=O)C1=C(CSc2nc(-c3ccccc3)ccc2C#N)OC(N)=C(C#N)C1c1ccccc1 (configuration not stated),"inconclusive: 20 µM [inhibitor, partial curve, poor fit]"
14,S=c1[nH]nc(-c2ccco2)n1C1CCCCC1,inactive
15,COC(=O)c1c(-n2c(C)cc(C=O)c2C)sc2c1CCCC2,"inconclusive: 28.2 µM [inhibitor, single point]"
16,O=C(COC(=O)c1cn(-c2ccccc2)nc1-c1ccc(F)cc1)Nc1ncc(Cl)cc1Cl,inactive
17,CC(=O)NN1C(=O)/C(=C\c2ccc(O)cc2)SC1=S,"inconclusive: 25.1 µM [inhibitor, partial curve]"
18,Cc1nnsc1NC(=O)OCC(C)C,"inconclusive: 39.8 µM [inhibitor, single point]"
19,CN(C)c1ccc(Nc2ncnc3sc4c(c23)CCCC4)cc1,"inconclusive: 10 µM [inhibitor, partial curve]"
20,CCOC(=O)C(NC(=O)c1ccccc1)(N1CCCC1=O)C(F)(F)F (configuration not stated),inactive
21,Cc1cc(=O)[nH]c2c(N=Nc3ccc(O)cc3)c(N)nn12,active: 8.91 µM
22,COc1ccc(-n2c(-c3ccc(Br)cc3)c[n+]3c2CCc2ccccc2-3)cc1,inactive
23,CCc1ccccc1N1CSC2=C(C#N)C(c3cc(OC)c(OC)cc3OC)CC(=O)N2C1 (configuration not stated),active: 28.2 µM
24,Cc1cc(SCC(=O)N/N=C/c2ccc(O)c(O)c2)c(C)cc1Br,"inconclusive: 14.1 µM [inhibitor, partial curve]"

row,SMILES,Potency
1,Cn1c(=O)c2c(-c3ccccc3)n(Cc3ccccn3)cc2n(C)c1=O,"inconclusive: 12.6 µM [inhibitor, partial curve]"
2,CC(C)(C)c1ccc(N/N=C(\C#N)S(=O)(=O)C(C)(C)C)cc1,"inconclusive: 35.5 µM [inhibitor, single point]"
3,Cc1cccc(S(=O)(=O)c2c(N)n(Cc3ccco3)c3nc4ccccc4nc23)c1,"inconclusive: 28.2 µM [inhibitor, single point]"
4,O=S(=O)(NN1CCOCC1)c1ccc(Cl)s1,"inconclusive: 35.5 µM [inhibitor, single point]"
5,O=C1N/C(=N\N=C\c2ccco2)SC1Cc1ccccc1[N+](=O)[O-] (configuration not stated),active: 7.08 µM
6,O=C1C(c2ccc(F)cc2)N(CCc2ccccc2)C(=O)CN1C1CCCCCC1 (configuration not stated),inactive
7,COc1ccc(/C=N/N(C(C)=O)c2nc(-c3ccc(C)cc3)cs2)cc1,"inconclusive: 8.91 µM [inhibitor, single point]"
8,COc1cc(/C=N/NC(=O)C(=O)/C=C2\NC3(CCCC3)Cc3ccccc32)ccc1O,"inconclusive: 15.8 µM [inhibitor, partial curve]"
9,COc1cccc(CNC(=O)CCCCCn2c(=S)[nH]c3ccc(N4CCOCC4)cc3c2=O)c1,inactive
10,O=C(NN1CCOCC1)c1cc(S(=O)(=O)Nc2cccc(C(F)(F)F)c2)ccc1Cl,inactive
11,C=CCNCCOCCOc1ccc(Cl)cc1C(C)(C)C,inactive
12,O=C(Nc1ccc(N2CCCC2)cc1)C(Cl)c1ccccc1 (configuration not stated),active: 25.1 µM
13,CC(=O)Nc1ccc(N(C(=O)Cn2nnc3ccccc32)C(C(=O)NCc2ccccc2)c2ccc(C)cc2)cc1 (configuration not stated),"inconclusive: 11.2 µM [inhibitor, partial curve, poor fit]"
14,COc1ccc(CCNC(=O)c2c(C)oc3ncn(C)c(=O)c23)c(OC)c1,inactive
15,COc1ccc(NC(C)c2ccccc2)cc1 (configuration not stated),inactive
16,O=C(Nc1nc2ccc(SC(F)F)cc2s1)c1ccc(NS(=O)(=O)c2ccc(F)c(F)c2)cc1,"inconclusive: 28.2 µM [activator, partial curve]"
17,O=C(NCc1ccco1)c1ccc2c(c1)N(Cc1ccc(F)cc1)C(=O)c1ccccc1S2(=O)=O,inactive
18,CCCCN1C(=O)C(O)(CC(=O)c2ccc(C)cc2C)c2cc(Br)ccc21 (configuration not stated),"inconclusive: 0.224 µM [inhibitor, partial curve, poor fit]"
19,Cc1ccc(-n2cc(-c3ccc([N+](=O)[O-])cc3)[nH]c2=S)c(C)c1,"inconclusive: 12.6 µM [inhibitor, partial curve]"
20,CN1\C(=C/C=C/C=C/C=[N+](C)C)C(C)(C)c2ccccc21,active: 3.55 µM
21,O=C1/C(=C/c2ccccc2)SC(=S)N1N1C(=O)C2CC2C1=O (configuration not stated),"inconclusive: 31.6 µM [inhibitor, partial curve]"
22,O=c1c2cn[nH]c2nc(SCc2c(F)cccc2F)n1-c1ccc(Cl)cc1,inactive
23,CCOc1ccc(NC(=O)[C@@H](NC(=O)c2ccccc2Br)C(C)C)cc1,"inconclusive: 28.2 µM [inhibitor, single point]"
24,Cn1c(CCC(=O)Nc2ccc(N3CCOCC3)cc2)nc(=O)c2ccccc21,"inconclusive: 12.6 µM [inhibitor, partial curve]"

row,SMILES,Potency
1,COc1ccc(CCNC(=O)c2ccc3c(c2)OCCO3)cc1,"inconclusive: 31.6 µM [inhibitor, single point]"
2,CCc1cccc2c(C#N)cn(CCOc3ccccc3OC)c12,inactive
3,O=C(COc1cccc2c1CCN(Cc1ccc(Br)cc1)C2=O)NCc1ccco1,"inconclusive: 39.8 µM [inhibitor, single point]"
4,COc1cccc2oc(-c3ccc(O)cc3)cc(=O)c12,inactive
5,CCOC(=O)C1CCN(c2ncnc3c2cnn3-c2ccc(Cl)cc2)CC1,"inconclusive: 2.51 µM [inhibitor, full curve]"
6,O=S(=O)(Cc1c(F)cccc1Cl)c1ncn[nH]1,inactive
7,COc1ccc(/C=C/C(=O)c2sc(-c3ccccc3)nc2C)cc1,"inconclusive: 5.62 µM [inhibitor, full curve]"
8,CCCCS(=O)(=O)c1oc(-c2ccc(F)cc2)nc1S(=O)(=O)c1ccc(C)cc1,"inconclusive: 8.91 µM [inhibitor, partial curve]"
9,O=S(=O)(Nc1ccccc1O)c1ccc(-c2ccccc2)cc1,inactive
10,CN(C)c1ccc(/C=N/N2C(=O)c3ccccc3C2=O)cc1,"inconclusive: 2.82 µM [inhibitor, full curve]"
11,O=C(/C=C/C=C/c1ccccc1)CC1(O)C(=O)N(CCc2ccccc2)c2ccccc21 (configuration not stated),"inconclusive: 39.8 µM [inhibitor, single point]"
12,COc1cc(OC)cc(-c2nc3n(n2)C(c2ccccc2)C(C(N)=O)=C(C)N3)c1 (configuration not stated),inactive
13,CC(=O)N1c2ccc(S(=O)(=O)Nc3ccc(Cl)cc3C)cc2CC1C (configuration not stated),inactive
14,COc1ccccc1NC(=O)COc1ccc(-c2nn(C)c(=O)c3ccccc23)cc1,"inconclusive: 12.6 µM [inhibitor, partial curve]"
15,COc1cc(/C=N/NC(=S)Nc2cccc(C(=O)O)c2)ccc1O,"inconclusive: 22.4 µM [inhibitor, single point]"
16,Cc1ccc2oc(=O)n(Cc3ccccc3OC(C)C)c2c1,inactive
17,O=[N+]([O-])c1ccc(-c2csc(Nc3ccccc3)[n+]2Cc2ccccc2)cc1,inactive
18,Oc1c(Cl)cc(Cl)cc1C(C#Cc1ccccc1)N1CCOCC1 (configuration not stated),active: 14.1 µM
19,Cn1c(=O)c2c(nc(NN=C3CCCC3)n2C)n(C)c1=O,active: 22.4 µM
20,Cc1cccn2c(=O)c3cc(C(=O)NCc4ccco4)c(=N)n(CCOCCO)c3nc12,inactive
21,Cc1cccc(NC(=O)CCS(=O)(=O)c2cc(Br)cc3c2N(C(=O)C2CC2)CC3)c1,"inconclusive: 0.794 µM [inhibitor, single point]"
22,O=C(NC(=S)N1CCN(c2ccc(C(F)(F)F)cc2[N+](=O)[O-])CC1)c1cccs1,"inconclusive: 28.2 µM [inhibitor, partial curve]"
23,CCOC(=O)C(NC(=O)CC)(N1CCc2ccccc2C1)C(F)(F)F (configuration not stated),active: 22.4 µM
24,COc1ccc(OCc2nnc(SCc3ccc(C(=O)O)cc3)o2)cc1,"inconclusive: 12.6 µM [inhibitor, partial curve]"
